Results as given in a collection of fitness landscapes (doi:10.1016/j.celrep.2020.107928).
Over roughly 81,000 sequences, “one-hybrid fitness for binding parS DNA” has its median near -0.17; the highest 2% begin near 0.51. The list shows a part of the results.

B1: Caulobacter ParB omega fusion; a variant is named by its letters at X, in order, B8GW30 (parent)
chain: MESVVVGEPGMSEGRRGLGRGLSALLGEVDAAPAQAPGEQLGGSREAPIEILQRNPDQPRRTFREEDLEDLSNSIREKGVLQPILVRPSPDTAGEYQIVAGERAWRAAQRAGLKTVPIMVRELDDLAVLEIGIIENVQRADLNVLEEALSYKVLMEKFERTQENIAQTIGKSXSHVANXMRLLXLPDEVQSYLVSGELTAXHARAIAAAADPVALAKQIIEGGLSVRETEALARKAPNLSAGKSKGGRPPRVKDTDTQALESDLSSVLGLDVSIDHRGSTGTLTITYATLEQLDDLCNRLTRGI

Variants of: B1
Assay: one-hybrid fitness for binding parS DNA (scaled: cognate 1, non-cognate 0); higher = stronger binding
Conditions: with parS DNA site
Summary of the method: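 Pre- and post-selection plasmids were Illumina-sequenced, three replicate libraries were pooled, and any variant with under 10 reads was removed. The libraries were Caulobacter ParB with four specificity codons randomised, selected in E. coli USO through a HIS3 reporter whose site is 19 bp from the promoter. Cells grew 48 hours at 37°C on M9 without histidine, with 0.1 mM IPTG and 5 mM 3-AT. Fitness is the log change in variant-to-wild-type read ratio, rescaled against cognate and non-cognate.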

one-hybrid fitness for binding parS DNA, 0.604:
RGMG

one-hybrid fitness for binding parS DNA, 0.998:
RSAS

one-hybrid fitness for binding parS DNA, 0.752:
RRES

one-hybrid fitness for binding parS DNA, 0.962:
RSMG

one-hybrid fitness for binding parS DNA, 0.341:
CKCC

one-hybrid fitness for binding parS DNA, 0.541:
RNKA

one-hybrid fitness for binding parS DNA, 0.462:
RFQY

one-hybrid fitness for binding parS DNA, 0.412:
RSHN

one-hybrid fitness for binding parS DNA, ≤ 0.2:
ISRG
AMYR
TKWS
GAFT
PTTK
AMRD
NLMR
YAKT
KAAI
WSPD
PTWK
EQTY
TESF
HREY
ECNR
KNHI
KSNY
LTHS
MPRV
TITA
RYQK
SRFR
DCMT
CGSH
NVWF
NTAC
EKKL
HTTC
SASY
ASDV
YLNG
TECC
LTWG
QMFD
SEQG
APQR
YRND
CSEG
EWDS
IWLF
CDGK
SDNH
TGPI
ARKN
NQKL
WDVT
SPHN
MLGI
RVIE
HPKL
VYLY
GSRA
WDVR
KLRA
NPRY
QMQY
IDMW
LVSP
DRRI
NART
PNRM
RPVW
CFAC
TQTW
GHQP
TAMV
APHM
HKEP
HAHA
PENA
GLKF
QMDN
VLTW
HTHI
PYTL
TNSI
CAKA
RWLR
DRSM
QLPN
WKSA
STEL
RCVK
QDTA
KVKT
VMHS
PTYL
LKTW
EDSM
WVEF
LDTL
TLGG
GNKK
FGTT
PCFY
VATR
PMNS
AMPC
QQQR
LNKT
NVSL
VWRC
NALS
FHNS
MVHL
TLAY
DACN
RIAL
VPQD
HSPA
CMAE
MVER
LLSL
TWHV
KTTV
TDMS
NVMR
ASYC
FWLR
NVKV
NPRR
TVAL
TMFC
ERFT
NSLE
VAVC
KDTE
PFHH
ADAE
HPNM
YSNR
DSKY
KERR
WMMR
WAQR
IEVR
HARF
YVRR
YCRH
QLDP
EIKR
LCNH
LDTN

one-hybrid fitness for binding parS DNA, 0.204:
MSCK

one-hybrid fitness for binding parS DNA, 0.307:
KNIE
